{"source": "PubChem BioAssay AID1347165", "about": "(National Center for Advancing Translational Sciences (NCATS), 2019)", "note": "About 5,700 (2.6%) of roughly 220,000 compounds were called active. The inconclusive results got no clear call from the source; some entries with a clear call stand among them for comparison. The call rests on the fitted dose curve; in most records, active means well fitted inhibition curve with a large enough effect; inconclusive means small, poorly fitted or top-dose-only effect; inactive means no such curve, though single readings can be large or run the other way. Where the call is inconclusive, the potency comes from a doubtful curve fit. Potency means the concentration at half of the fitted maximal effect; tags describe the fitted curve by direction and shape.", "data": [{"target": "Lysine-specific demethylase 5B (Homo sapiens) (UniProt Q9UGL1)", "sequence (Q9UGL1 whole entry, looked up)": "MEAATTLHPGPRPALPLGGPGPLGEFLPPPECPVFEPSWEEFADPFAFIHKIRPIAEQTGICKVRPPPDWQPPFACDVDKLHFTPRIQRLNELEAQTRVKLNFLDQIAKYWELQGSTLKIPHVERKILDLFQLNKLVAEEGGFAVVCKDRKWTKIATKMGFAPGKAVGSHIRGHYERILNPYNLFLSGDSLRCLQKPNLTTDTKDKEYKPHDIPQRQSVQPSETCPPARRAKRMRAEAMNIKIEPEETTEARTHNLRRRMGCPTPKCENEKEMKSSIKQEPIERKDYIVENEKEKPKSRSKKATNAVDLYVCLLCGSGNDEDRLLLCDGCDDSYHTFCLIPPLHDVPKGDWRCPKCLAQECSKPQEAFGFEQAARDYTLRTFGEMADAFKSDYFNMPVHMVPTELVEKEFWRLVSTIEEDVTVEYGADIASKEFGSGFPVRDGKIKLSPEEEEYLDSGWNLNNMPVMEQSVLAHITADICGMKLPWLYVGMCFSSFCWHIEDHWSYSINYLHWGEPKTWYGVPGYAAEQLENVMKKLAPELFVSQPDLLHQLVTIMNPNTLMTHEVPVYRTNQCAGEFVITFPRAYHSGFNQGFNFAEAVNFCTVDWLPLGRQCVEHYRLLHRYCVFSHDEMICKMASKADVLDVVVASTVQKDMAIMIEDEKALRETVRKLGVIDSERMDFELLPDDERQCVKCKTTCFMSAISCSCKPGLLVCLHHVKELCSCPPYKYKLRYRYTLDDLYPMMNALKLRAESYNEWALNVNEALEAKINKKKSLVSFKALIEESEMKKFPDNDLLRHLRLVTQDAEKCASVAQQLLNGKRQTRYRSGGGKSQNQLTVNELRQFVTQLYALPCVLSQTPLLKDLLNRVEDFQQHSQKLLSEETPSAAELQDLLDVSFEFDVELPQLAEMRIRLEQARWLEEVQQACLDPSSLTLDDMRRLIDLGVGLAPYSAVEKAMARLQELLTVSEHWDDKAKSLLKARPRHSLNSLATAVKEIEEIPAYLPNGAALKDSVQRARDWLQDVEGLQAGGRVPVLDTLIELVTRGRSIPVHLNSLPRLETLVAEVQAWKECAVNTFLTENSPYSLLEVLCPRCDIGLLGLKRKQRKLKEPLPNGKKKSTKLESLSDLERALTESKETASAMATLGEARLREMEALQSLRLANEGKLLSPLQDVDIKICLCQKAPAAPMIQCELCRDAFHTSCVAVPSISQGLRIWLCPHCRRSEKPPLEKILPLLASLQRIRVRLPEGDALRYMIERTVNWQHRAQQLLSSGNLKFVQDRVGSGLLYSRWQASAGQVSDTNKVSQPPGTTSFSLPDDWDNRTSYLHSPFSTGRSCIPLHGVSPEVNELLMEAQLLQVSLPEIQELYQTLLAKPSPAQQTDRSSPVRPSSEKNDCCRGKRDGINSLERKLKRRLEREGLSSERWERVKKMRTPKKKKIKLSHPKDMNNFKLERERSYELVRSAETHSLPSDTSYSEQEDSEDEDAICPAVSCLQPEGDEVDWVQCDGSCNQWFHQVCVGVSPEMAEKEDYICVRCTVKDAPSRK", "test": "Primary screen for KDM5B Histone Demethylases FDH-coupled qHTS; further: nearly all actives have a fitted effect of over 70% in size; on activity change, negative = inhibition: 0% is about no effect", "settings": "FDH-coupled NADH fluorescence (FDH is formaldehyde dehydrogenase); activity change, negative = inhibition: at 57.7 µM (top of the series) unless noted", "procedure,_shortened": "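Compound dilutions met 200 nM (final) KDM5BΔAP for 10 min at room temperature before substrate addition. The substrate mix held 12.5 µM H3K4me3 with cofactors 25 µM α-ketoglutarate and 50 µM Fe²⁺. NADH signal gain over 30 min defined activity.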", "values": [{"smiles": "O=C(CN1C(=O)NC2(CCOCC2)C1=O)Nc1ccc(Br)cc1", "Potency": "inactive"}, {"smiles": "CCCN1CCCc2cc(CN(CCCN3CCOCC3)C(=O)Nc3ccc(CC)cc3)ccc21", "Potency": "inconclusive: 15.8 µM [inhibitor, partial curve, poor fit]"}, {"smiles": "CCOC(=O)C1=C(C)NC(=O)C1(NC(=O)c1ccc(OC)c(OC)c1)C(F)(F)F", "note": "(stereo unspecified)", "Potency": "inactive"}, {"smiles": "O=C(Nc1ccc(O)cc1)c1cccc(S(=O)(=O)N2CCOCC2)c1", "activity change, negative = inhibition": "inconclusive: -34.2% [inhibitor]"}, {"smiles": "O=C(N/N=C/c1ccccc1OCCCOc1ccccc1Cl)c1ccccc1", "Potency": "inactive"}, {"smiles": "O=C(NCc1ccccc1)c1ccc2c(c1)n(Cc1ccc(F)cc1)c(=O)c1ccnn12", "Potency": "inconclusive: 39.8 µM [inhibitor, single point]"}, {"smiles": "C[n+]1ccccc1/C=C/c1cc(Br)ccc1O", "Potency": "inconclusive: 22.4 µM [inhibitor, partial curve, poor fit]"}, {"smiles": "O=C(CCCc1ccccc1)N1CCCC1c1nc(C2CCOCC2)no1", "note": "(stereo unspecified)", "Potency": "inconclusive: 20 µM [inhibitor, partial curve, poor fit]"}, {"smiles": "Cc1ccc(OCC(=O)N2CCN(c3ncccn3)CC2)c(C)c1", "Potency": "inactive"}, {"smiles": "COc1ccc(C(C(=O)NC2CCCC2)N(C(=O)c2snc(C(N)=O)c2N)C2CCCC2)cc1OC", "note": "(stereo unspecified)", "Potency": "inconclusive: 20 µM [inhibitor, partial curve, poor fit]"}, {"smiles": "CCC(=O)N1N=C(c2ccccc2NS(=O)(=O)CC)CC1c1ccco1", "note": "(stereo unspecified)", "Potency": "inactive"}, {"smiles": "CCc1cccc2c(C(=O)C(=O)NCc3ccc(OC)cc3)c[nH]c12", "Potency": "inactive"}, {"smiles": "Cc1ccc(N(C)C2CN(C(=O)OC(C)(C)C)C2)cc1", "Potency": "inconclusive: 112 µM [inhibitor, partial curve, poor fit]"}, {"smiles": "CSc1ccc(CCNC(=O)Cn2ncc3c(=O)oc4ccc(C)cc4c32)cc1", "Potency": "inconclusive: 28.2 µM [inhibitor, partial curve, poor fit]"}, {"smiles": "O=C(CSc1ncnc2c1sc1cccc(F)c12)NCCN1CCN(Cc2ccccc2)CC1", "Potency": "inconclusive: 20 µM [inhibitor, single point]"}, {"smiles": "Cc1ccc(CNc2oc(-c3ccccc3F)nc2C#N)cc1", "Potency": "inconclusive: 1.78 µM [inhibitor, partial curve, poor fit]"}, {"smiles": "Cc1ccsc1C(=O)NCc1ccncc1", "Potency": "inactive"}, {"smiles": "Cc1cccc(NC(=O)Cn2cc(C(=O)c3ccco3)c3ccccc32)c1C", "Potency": "inconclusive: 39.8 µM [inhibitor, single point]"}, {"smiles": "CC(C)CNC(=O)N1CC(Oc2ccccc2-c2nc(-c3ccccc3)no2)C1", "Potency": "inconclusive: 11.2 µM [inhibitor, partial curve, poor fit]"}, {"smiles": "CC(CC(=O)Nc1ccc(F)cc1)S(=O)(=O)c1ccc2c(c1)CCN2C(=O)C1CC1", "note": "(stereo unspecified)", "Potency": "inactive"}, {"smiles": "COc1ccc(-c2ccnc(N[C@H]3CO[C@H]4[C@@H]3OC[C@@H]4NS(=O)(=O)c3ccc(C)cc3)n2)cc1", "Potency": "inactive"}, {"smiles": "COc1ccc(CN2Cc3[nH]nc(-c4ccccc4OC)c3CC2=O)cc1", "Potency": "inactive"}, {"smiles": "O=c1oc2cc(S(=O)(=O)N3CCOCC3)ccc2n1Cc1ccc(Cl)cc1", "Potency": "inactive"}, {"smiles": "COc1ccc(C(=O)N[C@@H]2C=C(C(=O)NCCC(N)=O)C[C@@H](O)[C@@H]2O)cc1", "Potency": "inconclusive: 28.2 µM [inhibitor, single point]"}, {"smiles": "Cn1cc2c3c(cccc31)CN(C(=O)c1cccs1)CC2", "Potency": "inactive"}, {"smiles": "COc1cc2c(cc1OC)C(C[C@H]1CN(C(=O)Nc3ccc(F)cc3)CC[C@H]1CC(=O)O)=NCC2", "Potency": "active: 28.2 µM"}, {"smiles": "COc1ccc(Br)cc1CNC(=O)CN1CCSc2ccccc21", "activity change, negative = inhibition": "inconclusive: -33.9% [inhibitor]"}, {"smiles": "CC(C)c1noc(CC2CCN(C(=O)Cc3ccc(F)cc3)CC2)n1", "Potency": "inactive"}, {"smiles": "O=C(Nc1cccc(Cl)c1)N1CCN(Cc2nc3cc(C(=O)N4CCCCC4)ccc3o2)CC1", "Potency": "inactive"}, {"smiles": "COc1ccc(F)cc1Nc1cnc2ccc(N(C)C)nn12", "Potency": "active: 31.6 µM"}, {"smiles": "O=C(Nc1ccc(Cl)c(Cl)c1)N1CCC(c2ccccc2)C1", "note": "(stereo unspecified)", "Potency": "inconclusive: 15.8 µM [inhibitor, partial curve, poor fit]"}, {"smiles": "CC(=O)N1CCN(c2cc(-c3noc([C@@H]4CCCN4Cc4ccccc4)n3)ccn2)CC1", "Potency": "active: 35.5 µM"}, {"smiles": "CCc1ccc(-c2noc(Cn3cnc4c(nnn4Cc4ccccc4)c3=O)n2)cc1", "Potency": "inactive"}, {"smiles": "O=C(NCCn1ccn2nc(-c3ccc(F)cc3)cc2c1=O)c1ccc2c(c1)OCO2", "Potency": "inconclusive: 39.8 µM [inhibitor, single point]"}, {"smiles": "CC1CCc2c(-c3cccc(O)c3)nc3ccc4ccccc4c3c2C1", "note": "(stereo unspecified)", "Potency": "inactive"}, {"smiles": "CC(C)c1nc(N2CCOCC2)c(C#N)c2c1CCCC2", "Potency": "inconclusive: 28.2 µM [inhibitor, partial curve, poor fit]"}, {"smiles": "COc1ccc2cc(C(=O)Nc3ccc(Nc4ccccc4)cc3)[nH]c2c1", "Potency": "inconclusive: 39.8 µM [inhibitor, single point]"}, {"smiles": "COc1ccc(-c2noc([C@@H]3Cc4nc[nH]c4CN3C(=O)Nc3ccccc3)n2)cc1", "Potency": "inconclusive: 28.2 µM [inhibitor, single point]"}, {"smiles": "Cc1ccccc1-n1nc(C)c(CCC(=O)NC(C)C)c1Oc1ccccc1", "Potency": "inactive"}, {"smiles": "COc1ccc(OC)c(NC(=O)C2CCN(C(=O)N3CC4CC(C3)[C@H]3CCCC(=O)N3C4)CC2)c1", "note": "(stereo partly specified)", "Potency": "inconclusive: 25.1 µM [inhibitor, partial curve, poor fit]"}, {"smiles": "Cc1ccc(-n2c(=O)c3ccc(C(=O)NCc4ccco4)cc3n(Cc3cccc(Cl)c3)c2=O)cc1", "Potency": "inactive"}, {"smiles": "COc1ncccc1-c1nccn2c(C3CN(C(=O)c4cc5ccccc5[nH]4)C3)ncc12", "Potency": "inconclusive: 25.1 µM [inhibitor, partial curve, poor fit]"}, {"smiles": "COc1cc(/C=C/C(=O)c2cccc(O)c2)cc(Cl)c1O", "Potency": "inconclusive: 25.1 µM [inhibitor, partial curve, poor fit]"}, {"smiles": "COc1ccccc1-c1cc(C(=O)NCc2cccnc2)nc2c1cnn2C", "Potency": "inconclusive: 79.4 µM [inhibitor, partial curve]"}, {"smiles": "O=C(Cn1cccc1-c1nc(-c2ccc3c(c2)OCO3)no1)NCc1ccc(F)cc1F", "Potency": "inconclusive: 39.8 µM [inhibitor, single point]"}, {"smiles": "O=C(c1cc(-c2ccco2)nc2ccccc12)N1CCN(Cc2ccccc2)CC1", "Potency": "inconclusive: 22.4 µM [inhibitor, partial curve, poor fit]"}, {"smiles": "CC(C)N1CCN(C(=O)CCC[C@@H]2[C@H]3CCCN4CCC[C@@H](CN2C(=O)c2cccnc2)[C@@H]34)CC1", "Potency": "inconclusive: 22.4 µM [inhibitor, partial curve]"}, {"smiles": "Cc1cccc(N/C=C/C(=O)C(F)(F)F)c1", "Potency": "inactive"}, {"smiles": "CC(C)CNC(=O)c1cc(C2CC2)nc2onc(C3CCCN3)c12", "note": "(stereo unspecified)", "Potency": "inconclusive: 79.4 µM [inhibitor, partial curve, poor fit]"}, {"smiles": "O=C(NCc1ccco1)Nc1cccc(-c2ccc(N3CCCC3)nn2)c1", "Potency": "inconclusive: 17.8 µM [inhibitor, partial curve, poor fit]"}, {"smiles": "O=C1CC(c2ccccc2)N(Cc2ccncc2)CCCN(CC2CCCCC2)CCN1", "note": "(stereo unspecified)", "Potency": "inconclusive: 14.1 µM [inhibitor, partial curve, poor fit]"}, {"smiles": "COc1ccc(C(C)NC(=O)c2noc(-c3ccc[nH]c3=O)n2)cc1OC", "note": "(stereo unspecified)", "Potency": "active: 31.6 µM"}, {"smiles": "Cc1ccc(N2CCN(c3nc4c(c(=O)[nH]3)CCNC4)CC2)cc1", "Potency": "inconclusive: 20 µM [inhibitor, partial curve, poor fit]"}, {"smiles": "Cn1cc(S(=O)(=O)c2ccccc2)c(=O)c2cc(F)c(N3CCCCC3)cc21", "Potency": "inconclusive: 2 µM [inhibitor, full curve, poor fit]"}, {"smiles": "O=C(CCc1ncc(-c2ccccc2Cl)o1)Nc1nccs1", "Potency": "inactive"}, {"smiles": "COc1ccc(NC(=O)N2CCc3c(nc4cc(-c5ccccc5)[nH]n4c3=O)C2)c(OC)c1", "Potency": "inconclusive: 3.55 µM [inhibitor, full curve]"}, {"smiles": "Cc1c(Cl)cccc1NC(=O)c1cnc(N2CCCCC2)c2ccccc12", "Potency": "inactive"}, {"smiles": "COc1ccc(C2Cn3nnc(-c4noc(-c5cc(F)ccc5F)n4)c3CO2)cc1", "note": "(stereo unspecified)", "Potency": "active: 17.8 µM"}, {"smiles": "COc1ccc2cc(CNC(=O)C(C)C)ccc2c1", "Potency": "inactive"}, {"smiles": "O=C(NCC(c1cccs1)N1CCCCCC1)c1cc(=O)c2ccc(Br)cc2o1", "note": "(stereo unspecified)", "Potency": "inactive"}, {"smiles": "COCCNc1ncc(-c2cccc(NC(C)=O)c2)c2c1OCC2", "Potency": "active: 39.8 µM"}, {"smiles": "COC(=O)c1ccc(CO/N=C/c2ccc(Cl)cc2Cl)cc1", "Potency": "inactive"}, {"smiles": "CCCCn1nc(C(=O)N2CCSCC2)c2ccccc2c1=O", "Potency": "inactive"}, {"smiles": "O=C(COC(=O)c1ccc(-c2ccccc2)s1)c1ccccc1", "Potency": "inconclusive: 39.8 µM [inhibitor, single point]"}, {"smiles": "O=C(/C=C/c1ccc2ccccc2n1)c1cc(Br)ccc1O", "Potency": "inconclusive: 12.6 µM [inhibitor, partial curve, poor fit]"}, {"smiles": "Cc1noc(C)c1-c1cc2c(cc(C)n2C)c(N2CCN(c3ccccn3)CC2)n1", "Potency": "active: 31.6 µM"}, {"smiles": "C1=C(c2nc(-c3ccc(N4CCOCC4)cc3)cc3c2ccn3Cc2cccnc2)CCOC1", "Potency": "active: 28.2 µM"}, {"smiles": "CC1=C[C@@H](CNC(=O)C2CC2)[C@H](C(C)C)C[C@H]1CC(=O)Nc1ccccn1", "Potency": "inactive"}, {"smiles": "CCNc1ccc(C)cc1C", "Potency": "inactive"}, {"smiles": "O=C(Nc1ccc(Cl)cc1)N1CCC2(CC1)C(=O)NCN2Cc1ccc(Cl)cc1", "Potency": "inactive"}, {"smiles": "COC(=O)c1cccn2cc(CN3CCN(S(=O)(=O)c4cccc(C(F)(F)F)c4)CC3)nc12", "Potency": "inconclusive: 17.8 µM [inhibitor, partial curve, poor fit]"}]}]}
